Assay results as given in PMC12820563, “FoxP3 forms a head-to-head dimer in vivo and stabilizes its multimerization on adjacent microsatellites”.
This is one part of the list.

The sequences below were run against T1, MBP-FoxP1dN (Mus musculus, UniProt P58462 326-579) (assay: PD-seq (MBP pull-down with sequencing); 20 mM Tris-HCl pH 7.5, 100 mM NaCl, 1.5 mM MgCl2, 0.4 uM protein, 0.1 uM dsDNA library, 30 min, room temperature, amylose pull-down; high values mean tight binding). Conditions: protein: recombinant; tags: His6-MBP; chain copies: 2; dsDNA, one strand shown.
T1 sequence: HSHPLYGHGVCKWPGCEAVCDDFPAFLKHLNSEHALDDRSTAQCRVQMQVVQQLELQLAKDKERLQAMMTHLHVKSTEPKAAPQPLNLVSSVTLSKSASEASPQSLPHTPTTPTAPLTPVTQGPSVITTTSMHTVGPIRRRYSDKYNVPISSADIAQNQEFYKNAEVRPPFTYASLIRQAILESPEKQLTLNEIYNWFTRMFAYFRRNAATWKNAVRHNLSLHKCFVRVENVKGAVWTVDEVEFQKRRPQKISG
Procedure, shortened: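 The N-terminus-lacking fragment of mouse FoxP3 or FoxP1 carried a His6-MBP tag and was expressed in E. coli. At 0.4 µM it was incubated with 0.1 µM Klenow-filled degenerate double-stranded DNA library for 30 min at room temperature in Tris pH 7.5 buffer with NaCl and MgCl2, and complexes were caught on amylose resin, washed three times, released with proteinase K, PCR-barcoded and Illumina-sequenced. Binding is reads-per-million enrichment of pull-down over input with replicates pooled.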

Sequence	binding signal
GATGATTGTTCTCCCAGCTGATGAATTAAAGTCGTCGAGTAAACAAATTTTCCTAATCTTTCTGTTCAAGCGCCATCTAC	0.861 RPM ratio (pull-down/input)
GATGATTGTTCTCCCAGCTGATGAATTTACAATATCGAGTAAACAAATTTTCCTAATCTTTCTGTTCAAGCGCCATCTAC	1.63 RPM ratio (pull-down/input)
GATGATTGTTCTCCCAGCTGATGAATTACTGGTATCGAGTAAACAAATTTTCCTAATCTTTCTGTTCAAGCGCCATCTAC	1.13 RPM ratio (pull-down/input)
GATGATTGTTCTCCCAGCTGATGAATTCAGGCGGTCGAGTAAACAAATTTTCCTAATCTTTCTGTTCAAGCGCCATCTAC	0.783 RPM ratio (pull-down/input)
GATGATTGTTCTCCCAGCTGATGAATTACAAAACTCGAGTAAACAAATTTTCCTAATCTTTCTGTTCAAGCGCCATCTAC	1.24 RPM ratio (pull-down/input)
GATGATTGTTCTCCCAGCTGATGAATTGCTAGATTCGAGTAAACAAATTTTCCTAATCTTTCTGTTCAAGCGCCATCTAC	1.09 RPM ratio (pull-down/input)
GATGATTGTTCTCCCAGCTGATGAATTACTCGTCTCGAGTAAACAAATTTTCCTAATCTTTCTGTTCAAGCGCCATCTAC	0.904 RPM ratio (pull-down/input)
GATGATTGTTCTCCCAGCTGATGAATTCATGGATTCGAGTAAACAAATTTTCCTAATCTTTCTGTTCAAGCGCCATCTAC	0.883 RPM ratio (pull-down/input)
GATGATTGTTCTCCCAGCTGATGAATTTGTAGTGTCGAGTAAACAAATTTTCCTAATCTTTCTGTTCAAGCGCCATCTAC	1.2 RPM ratio (pull-down/input)
GATGATTGTTCTCCCAGCTGATGAATTATGTTTGTCGAGTAAACAAATTTTCCTAATCTTTCTGTTCAAGCGCCATCTAC	2.67 RPM ratio (pull-down/input)
GATGATTGTTCTCCCAGCTGATGAATTTTTGGAATCGAGTAAACAAATTTTCCTAATCTTTCTGTTCAAGCGCCATCTAC	0.943 RPM ratio (pull-down/input)
GATGATTGTTCTCCCAGCTGATGAATTCACGTTGTCGAGTAAACAAATTTTCCTAATCTTTCTGTTCAAGCGCCATCTAC	1.11 RPM ratio (pull-down/input)
GATGATTGTTCTCCCAGCTGATGAATTAAGGCACTCGAGTAAACAAATTTTCCTAATCTTTCTGTTCAAGCGCCATCTAC	0.949 RPM ratio (pull-down/input)
GATGATTGTTCTCCCAGCTGATGAATTTTGTTGGTCGAGTAAACAAATTTTCCTAATCTTTCTGTTCAAGCGCCATCTAC	2.26 RPM ratio (pull-down/input)
GATGATTGTTCTCCCAGCTGATGAATTCCTCACATCGAGTAAACAAATTTTCCTAATCTTTCTGTTCAAGCGCCATCTAC	0.862 RPM ratio (pull-down/input)
GATGATTGTTCTCCCAGCTGATGAATTAGGGCGGTCGAGTAAACAAATTTTCCTAATCTTTCTGTTCAAGCGCCATCTAC	0.824 RPM ratio (pull-down/input)
GATGATTGTTCTCCCAGCTGATGAATTTGGTTAGTCGAGTAAACAAATTTTCCTAATCTTTCTGTTCAAGCGCCATCTAC	0.953 RPM ratio (pull-down/input)
GATGATTGTTCTCCCAGCTGATGAATTACTGATCTCGAGTAAACAAATTTTCCTAATCTTTCTGTTCAAGCGCCATCTAC	0.94 RPM ratio (pull-down/input)
GATGATTGTTCTCCCAGCTGATGAATTACTTTGATCGAGTAAACAAATTTTCCTAATCTTTCTGTTCAAGCGCCATCTAC	1.07 RPM ratio (pull-down/input)
GATGATTGTTCTCCCAGCTGATGAATTACAGCACTCGAGTAAACAAATTTTCCTAATCTTTCTGTTCAAGCGCCATCTAC	1.05 RPM ratio (pull-down/input)
GATGATTGTTCTCCCAGCTGATGAATTTAATCAGTCGAGTAAACAAATTTTCCTAATCTTTCTGTTCAAGCGCCATCTAC	0.906 RPM ratio (pull-down/input)

Sequence	binding signal
GATGATTGTTCTCCCAGCTGATGAATTGATCTCCTCGAGTAAACAAATTTTCCTAATCTTTCTGTTCAAGCGCCATCTAC	0.923 RPM ratio (pull-down/input)
GATGATTGTTCTCCCAGCTGATGAATTGTGTGTGTCGAGTAAACAAATTTTCCTAATCTTTCTGTTCAAGCGCCATCTAC	1.52 RPM ratio (pull-down/input)
GATGATTGTTCTCCCAGCTGATGAATTTATCCGATCGAGTAAACAAATTTTCCTAATCTTTCTGTTCAAGCGCCATCTAC	0.999 RPM ratio (pull-down/input)
GATGATTGTTCTCCCAGCTGATGAATTTGGTAATTCGAGTAAACAAATTTTCCTAATCTTTCTGTTCAAGCGCCATCTAC	1.09 RPM ratio (pull-down/input)
GATGATTGTTCTCCCAGCTGATGAATTCTCAAATTCGAGTAAACAAATTTTCCTAATCTTTCTGTTCAAGCGCCATCTAC	0.911 RPM ratio (pull-down/input)
GATGATTGTTCTCCCAGCTGATGAATTATCAGCGTCGAGTAAACAAATTTTCCTAATCTTTCTGTTCAAGCGCCATCTAC	0.948 RPM ratio (pull-down/input)
GATGATTGTTCTCCCAGCTGATGAATTTGGATCGTCGAGTAAACAAATTTTCCTAATCTTTCTGTTCAAGCGCCATCTAC	0.841 RPM ratio (pull-down/input)
GATGATTGTTCTCCCAGCTGATGAATTTTATGGCTCGAGTAAACAAATTTTCCTAATCTTTCTGTTCAAGCGCCATCTAC	0.839 RPM ratio (pull-down/input)
GATGATTGTTCTCCCAGCTGATGAATTGCCGAAATCGAGTAAACAAATTTTCCTAATCTTTCTGTTCAAGCGCCATCTAC	1.02 RPM ratio (pull-down/input)
GATGATTGTTCTCCCAGCTGATGAATTTTATCCATCGAGTAAACAAATTTTCCTAATCTTTCTGTTCAAGCGCCATCTAC	1.04 RPM ratio (pull-down/input)
GATGATTGTTCTCCCAGCTGATGAATTCACGAGCTCGAGTAAACAAATTTTCCTAATCTTTCTGTTCAAGCGCCATCTAC	0.831 RPM ratio (pull-down/input)
GATGATTGTTCTCCCAGCTGATGAATTACATTCCTCGAGTAAACAAATTTTCCTAATCTTTCTGTTCAAGCGCCATCTAC	1.2 RPM ratio (pull-down/input)
GATGATTGTTCTCCCAGCTGATGAATTACGGCCGTCGAGTAAACAAATTTTCCTAATCTTTCTGTTCAAGCGCCATCTAC	0.888 RPM ratio (pull-down/input)
GATGATTGTTCTCCCAGCTGATGAATTGTCAAACTCGAGTAAACAAATTTTCCTAATCTTTCTGTTCAAGCGCCATCTAC	1.02 RPM ratio (pull-down/input)
GATGATTGTTCTCCCAGCTGATGAATTGAGCATCTCGAGTAAACAAATTTTCCTAATCTTTCTGTTCAAGCGCCATCTAC	1.01 RPM ratio (pull-down/input)
GATGATTGTTCTCCCAGCTGATGAATTCAGGATGTCGAGTAAACAAATTTTCCTAATCTTTCTGTTCAAGCGCCATCTAC	0.854 RPM ratio (pull-down/input)
GATGATTGTTCTCCCAGCTGATGAATTCACGCTATCGAGTAAACAAATTTTCCTAATCTTTCTGTTCAAGCGCCATCTAC	1.08 RPM ratio (pull-down/input)
GATGATTGTTCTCCCAGCTGATGAATTGCGGATATCGAGTAAACAAATTTTCCTAATCTTTCTGTTCAAGCGCCATCTAC	1.17 RPM ratio (pull-down/input)
GATGATTGTTCTCCCAGCTGATGAATTATTGCGATCGAGTAAACAAATTTTCCTAATCTTTCTGTTCAAGCGCCATCTAC	1.14 RPM ratio (pull-down/input)
GATGATTGTTCTCCCAGCTGATGAATTGCAATACTCGAGTAAACAAATTTTCCTAATCTTTCTGTTCAAGCGCCATCTAC	1.34 RPM ratio (pull-down/input)
GATGATTGTTCTCCCAGCTGATGAATTCGATTGGTCGAGTAAACAAATTTTCCTAATCTTTCTGTTCAAGCGCCATCTAC	0.866 RPM ratio (pull-down/input)

Sequence	binding signal
GATGATTGTTCTCCCAGCTGATGAATTGCGTTTATCGAGTAAACAAATTTTCCTAATCTTTCTGTTCAAGCGCCATCTAC	1.46 RPM ratio (pull-down/input)
GATGATTGTTCTCCCAGCTGATGAATTCGTTGTGTCGAGTAAACAAATTTTCCTAATCTTTCTGTTCAAGCGCCATCTAC	1.1 RPM ratio (pull-down/input)
GATGATTGTTCTCCCAGCTGATGAATTGAAGCCTTCGAGTAAACAAATTTTCCTAATCTTTCTGTTCAAGCGCCATCTAC	0.888 RPM ratio (pull-down/input)
GATGATTGTTCTCCCAGCTGATGAATTATCCCCTTCGAGTAAACAAATTTTCCTAATCTTTCTGTTCAAGCGCCATCTAC	0.963 RPM ratio (pull-down/input)
GATGATTGTTCTCCCAGCTGATGAATTCCAAATCTCGAGTAAACAAATTTTCCTAATCTTTCTGTTCAAGCGCCATCTAC	0.84 RPM ratio (pull-down/input)
GATGATTGTTCTCCCAGCTGATGAATTGTCACGCTCGAGTAAACAAATTTTCCTAATCTTTCTGTTCAAGCGCCATCTAC	0.98 RPM ratio (pull-down/input)
GATGATTGTTCTCCCAGCTGATGAATTTGCCTGGTCGAGTAAACAAATTTTCCTAATCTTTCTGTTCAAGCGCCATCTAC	0.802 RPM ratio (pull-down/input)
GATGATTGTTCTCCCAGCTGATGAATTGTCCGGGTCGAGTAAACAAATTTTCCTAATCTTTCTGTTCAAGCGCCATCTAC	0.835 RPM ratio (pull-down/input)
GATGATTGTTCTCCCAGCTGATGAATTGCGGCAATCGAGTAAACAAATTTTCCTAATCTTTCTGTTCAAGCGCCATCTAC	1.29 RPM ratio (pull-down/input)
GATGATTGTTCTCCCAGCTGATGAATTGTTGAACTCGAGTAAACAAATTTTCCTAATCTTTCTGTTCAAGCGCCATCTAC	1.06 RPM ratio (pull-down/input)
GATGATTGTTCTCCCAGCTGATGAATTCTGCGTGTCGAGTAAACAAATTTTCCTAATCTTTCTGTTCAAGCGCCATCTAC	0.955 RPM ratio (pull-down/input)
GATGATTGTTCTCCCAGCTGATGAATTTATTTTGTCGAGTAAACAAATTTTCCTAATCTTTCTGTTCAAGCGCCATCTAC	1.62 RPM ratio (pull-down/input)
GATGATTGTTCTCCCAGCTGATGAATTGCTGCGTTCGAGTAAACAAATTTTCCTAATCTTTCTGTTCAAGCGCCATCTAC	1.02 RPM ratio (pull-down/input)
GATGATTGTTCTCCCAGCTGATGAATTACAGCATTCGAGTAAACAAATTTTCCTAATCTTTCTGTTCAAGCGCCATCTAC	1.35 RPM ratio (pull-down/input)
GATGATTGTTCTCCCAGCTGATGAATTTGTGGCCTCGAGTAAACAAATTTTCCTAATCTTTCTGTTCAAGCGCCATCTAC	1.06 RPM ratio (pull-down/input)
GATGATTGTTCTCCCAGCTGATGAATTCAGCTTGTCGAGTAAACAAATTTTCCTAATCTTTCTGTTCAAGCGCCATCTAC	0.872 RPM ratio (pull-down/input)
GATGATTGTTCTCCCAGCTGATGAATTTCGTCAATCGAGTAAACAAATTTTCCTAATCTTTCTGTTCAAGCGCCATCTAC	1.08 RPM ratio (pull-down/input)
GATGATTGTTCTCCCAGCTGATGAATTTTGAACTTCGAGTAAACAAATTTTCCTAATCTTTCTGTTCAAGCGCCATCTAC	0.94 RPM ratio (pull-down/input)
GATGATTGTTCTCCCAGCTGATGAATTATCACGTTCGAGTAAACAAATTTTCCTAATCTTTCTGTTCAAGCGCCATCTAC	1.03 RPM ratio (pull-down/input)
GATGATTGTTCTCCCAGCTGATGAATTAAGTCTATCGAGTAAACAAATTTTCCTAATCTTTCTGTTCAAGCGCCATCTAC	0.866 RPM ratio (pull-down/input)
GATGATTGTTCTCCCAGCTGATGAATTGACGCGTTCGAGTAAACAAATTTTCCTAATCTTTCTGTTCAAGCGCCATCTAC	1.11 RPM ratio (pull-down/input)
